# From a collection of fitness landscapes (doi:10.1038/s41467-024-54723-y)
# In all, about 18,000 sequences were measured (“TetR repression strength (sort-seq, GFP reporter)”: median about 0.23, highest 2% from about 0.68 on). Some of the results follow.
# Molecular target: TetR (class B, Tn10) (UniProt P04483)
# Test: TetR repression strength (sort-seq, GFP reporter) (relative to tetO2 = 1); higher = stronger repression
# Conditions: E. coli
# Procedure, shortened: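 E. coli SIG10-MAX carried a low-copy plasmid library with eight randomized operator positions between a constitutive promoter and sfGFP, with TetR constitutively expressed. Cells grew 5 h at 37 °C in LB with 50 µg/mL chloramphenicol, then 10^6 cells were FACS-sorted into 13 fluorescence bins, each Illumina-sequenced. Repression strength is the top bin index plus one minus the read-weighted mean bin, divided by the wild-type operator value. Three independent transformations; variants with ≥30 reads in all replicates and CV ≤0.5 were averaged.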
# Chain of UniProt P04483 (P04483 whole entry): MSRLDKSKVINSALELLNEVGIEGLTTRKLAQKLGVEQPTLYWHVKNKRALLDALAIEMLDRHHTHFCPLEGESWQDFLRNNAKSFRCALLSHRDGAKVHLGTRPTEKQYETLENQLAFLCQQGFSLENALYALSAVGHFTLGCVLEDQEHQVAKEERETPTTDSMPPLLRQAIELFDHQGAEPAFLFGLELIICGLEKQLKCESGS
row,Sequence,TetR repression strength
1,TCCCTTGTAGTCTCGGAGA,0.364
2,TCCCATAAAGTGTAGGAGA,0.357
3,TCCCGTGGAGTAATGGAGA,0.288
4,TCCCAGTAAGTGGGTGAGA,0.232
5,TCCCTCGTAGTACGGGAGA,0.305
6,TCCCGGTGAGTGGAGGAGA,0.289
7,TCCCGAAGAGTCATTGAGA,0.207
8,TCCCAATTAGTTAACGAGA,0.213
9,TCCCTGTTAGTCTGTGAGA,0.124
10,TCCCCGCTAGTTACCGAGA,0.448
11,TCCCAGGAAGTTCCCGAGA,0.0968
12,TCCCCGCCAGTAGCAGAGA,0.671
13,TCCCAAATAGTCGGGGAGA,0.12
14,TCCCGGCAAGTCGCGGAGA,0.264
15,TCCCTCCGAGTGTAAGAGA,0.281
16,TCCCAGCCAGTACGGGAGA,0.15
17,TCCCGATCAGTTATGGAGA,0.478
18,TCCCAGTAAGTCCGGGAGA,0.157
19,TCCCGAATAGTGCCTGAGA,0.525
20,TCCCGTTAAGTTCCTGAGA,0.721
21,TCCCAGTGAGTCATGGAGA,0.115
22,TCCCGGTCAGTTCAGGAGA,0.358
23,TCCCTAGTAGTTGGTGAGA,0.177
24,TCCCAGATAGTCGGCGAGA,0.166
25,TCCCCGTTAGTTGGTGAGA,0.116
26,TCCCTTGTAGTTAACGAGA,0.0908

row,Sequence,TetR repression strength
1,TCCCTGAGAGTATGAGAGA,0.449
2,TCCCTTGTAGTTGCAGAGA,0.13
3,TCCCACATAGTGAACGAGA,0.412
4,TCCCCGTCAGTTCAAGAGA,0.294
5,TCCCAGAAAGTTGGAGAGA,0.225
6,TCCCGGGAAGTATCAGAGA,0.0407
7,TCCCACAGAGTGCAAGAGA,0.343
8,TCCCGGCGAGTATGGGAGA,0.182
9,TCCCAAGTAGTAGAGGAGA,0.165
10,TCCCTGAAAGTTTCGGAGA,0.306
11,TCCCTGTTAGTCTTTGAGA,0.298
12,TCCCAGGTAGTCCGAGAGA,0.242
13,TCCCGAAGAGTCCAAGAGA,0.431
14,TCCCGTGCAGTAGGTGAGA,0.259
15,TCCCTGGGAGTGTGGGAGA,0.155
16,TCCCTCTAAGTTATGGAGA,0.294
17,TCCCTCGGAGTCCGCGAGA,0.516
18,TCCCTTGGAGTTGTAGAGA,0.381
19,TCCCAGCTAGTGGCGGAGA,0.316
20,TCCCGGATAGTACTAGAGA,0.291
21,TCCCATGGAGTCCTTGAGA,0.519
22,TCCCGAAGAGTCATGGAGA,0.205
23,TCCCCATCAGTTCTAGAGA,0.604
24,TCCCTAGGAGTTAACGAGA,0.358
25,TCCCTTTTAGTGAGAGAGA,0.425
26,TCCCACCCAGTAGACGAGA,0.227

row,Sequence,TetR repression strength
1,TCCCTTTAAGTCTTAGAGA,0.0126
2,TCCCTACAAGTTTGTGAGA,0.0461
3,TCCCGGTAAGTAGACGAGA,0.144
4,TCCCGCATAGTGGCTGAGA,0.21
5,TCCCGCTGAGTCTTGGAGA,0.135
6,TCCCGCTCAGTGTGGGAGA,0.225
7,TCCCAATCAGTAAGCGAGA,0.347
8,TCCCCGATAGTGGAGGAGA,0.256
9,TCCCTCAAAGTTCGGGAGA,0.0581
10,TCCCAAGTAGTATCAGAGA,0.44
11,TCCCCGGGAGTTGTAGAGA,0.162
12,TCCCGTGGAGTGTTGGAGA,0.325
13,TCCCGGGCAGTTCAGGAGA,0.513
14,TCCCACAAAGTTCTGGAGA,0.27
15,TCCCGCCGAGTGTCGGAGA,0.265
16,TCCCAGAGAGTACTAGAGA,0.336
17,TCCCAGATAGTTGGTGAGA,0.428
18,TCCCACAGAGTATAAGAGA,0.358
19,TCCCTTGCAGTACGTGAGA,0.536
20,TCCCGGAGAGTACCAGAGA,0.218
21,TCCCTACTAGTCTGTGAGA,0.327
22,TCCCAAGAAGTATCGGAGA,0.139
23,TCCCGTCTAGTGTTAGAGA,0.851
24,TCCCGACGAGTGCGGGAGA,0.157
25,TCCCACTTAGTTTCTGAGA,0.104
26,TCCCATAGAGTAATTGAGA,0.0803

row,Sequence,TetR repression strength
1,TCCCAAACAGTTGGTGAGA,0.291
2,TCCCTGCGAGTAGCGGAGA,0.36
3,TCCCACCTAGTCTCTGAGA,0.412
4,TCCCGAAAAGTTAGAGAGA,0.131
5,TCCCGTGAAGTGAGCGAGA,0.888
6,TCCCCAGGAGTTTTTGAGA,0.297
7,TCCCGTCAAGTACCCGAGA,0.325
8,TCCCCAAAAGTGTCCGAGA,0.302
9,TCCCTTATAGTTCATGAGA,0.4
10,TCCCGTCAAGTTGTGGAGA,0.0694
11,TCCCGAGGAGTGGCGGAGA,0.356
12,TCCCGCGAAGTGGGGGAGA,0.213
13,TCCCGGAGAGTAAGGGAGA,0.37
14,TCCCATTGAGTCCAGGAGA,0.158
15,TCCCTATTAGTAGGGGAGA,0.0567
16,TCCCATGTAGTGGTAGAGA,0.221
17,TCCCTTCTAGTGACCGAGA,0.316
18,TCCCGTTAAGTTTTCGAGA,0.284
19,TCCCAGCAAGTAGTGGAGA,0.222
20,TCCCATTCAGTTATTGAGA,0.55
21,TCCCGTGGAGTCCTTGAGA,0.304
22,TCCCTACTAGTTAACGAGA,0.438
23,TCCCTGTCAGTTTAGGAGA,0.31
24,TCCCTTAAAGTGTGGGAGA,0.212
